Data published in PMC5801593.

Biological target: T1, cysteine desulfurase IscS (E. coli), P0A6B7
T1 chain: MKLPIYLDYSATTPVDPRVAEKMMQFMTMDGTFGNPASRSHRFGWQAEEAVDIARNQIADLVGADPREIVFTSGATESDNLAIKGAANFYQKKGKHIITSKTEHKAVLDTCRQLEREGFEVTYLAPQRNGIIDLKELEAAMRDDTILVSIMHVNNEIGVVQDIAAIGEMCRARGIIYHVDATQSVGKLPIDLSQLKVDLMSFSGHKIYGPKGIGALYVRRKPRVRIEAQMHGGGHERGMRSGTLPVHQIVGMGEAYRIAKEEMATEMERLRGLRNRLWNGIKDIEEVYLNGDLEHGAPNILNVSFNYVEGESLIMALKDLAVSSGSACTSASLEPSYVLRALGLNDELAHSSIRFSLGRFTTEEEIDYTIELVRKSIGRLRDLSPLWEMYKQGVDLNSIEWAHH
Assay: native MS; ESI-MS under non-denaturing conditions; IscS 3 μM in 250 mM ammonium acetate pH 8, IscX at 0-16 IscX/IscS molar ratios, 5 min at room temperature; sequential binding model (DynaFit)
Conditions: remark: other sources report otherwise

B1: cysteine desulfurase IscS, P0A6B7 1-404 (enzyme)
chain: MKLPIYLDYSATTPVDPRVAEKMMQFMTMDGTFGNPASRSHRFGWQAEEAVDIARNQIADLVGADPREIVFTSGATESDNLAIKGAANFYQKKGKHIITSKTEHKAVLDTCRQLEREGFEVTYLAPQRNGIIDLKELEAAMRDDTILVSIMHVNNEIGVVQDIAAIGEMCRARGIIYHVDATQSVGKLPIDLSQLKVDLMSFSGHKIYGPKGIGALYVRRKPRVRIEAQMHGGGHERGMRSGTLPVHQIVGMGEAYRIAKEEMATEMERLRGLRNRLWNGIKDIEEVYLNGDLEHGAPNILNVSFNYVEGESLIMALKDLAVSSGSACTSASLEPSYVLRALGLNDELAHSSIRFSLGRFTTEEEIDYTIELVRKSIGRLRDLSPLWEMYKQGVDLNSIEWAHH
B1 showed a stoichiometry N of 2.
